No constants are given. Whether binding was seen depends on the method and setting. Binding seen in cells or lysates may run through a third protein. Some binding calls cover weakened binding; strength is not graded here. Sequences can lack the tags named with a protein.
T1: FLAG-UPF1 (wild-type) (human) (UniProt Q92900)
T1 sequence: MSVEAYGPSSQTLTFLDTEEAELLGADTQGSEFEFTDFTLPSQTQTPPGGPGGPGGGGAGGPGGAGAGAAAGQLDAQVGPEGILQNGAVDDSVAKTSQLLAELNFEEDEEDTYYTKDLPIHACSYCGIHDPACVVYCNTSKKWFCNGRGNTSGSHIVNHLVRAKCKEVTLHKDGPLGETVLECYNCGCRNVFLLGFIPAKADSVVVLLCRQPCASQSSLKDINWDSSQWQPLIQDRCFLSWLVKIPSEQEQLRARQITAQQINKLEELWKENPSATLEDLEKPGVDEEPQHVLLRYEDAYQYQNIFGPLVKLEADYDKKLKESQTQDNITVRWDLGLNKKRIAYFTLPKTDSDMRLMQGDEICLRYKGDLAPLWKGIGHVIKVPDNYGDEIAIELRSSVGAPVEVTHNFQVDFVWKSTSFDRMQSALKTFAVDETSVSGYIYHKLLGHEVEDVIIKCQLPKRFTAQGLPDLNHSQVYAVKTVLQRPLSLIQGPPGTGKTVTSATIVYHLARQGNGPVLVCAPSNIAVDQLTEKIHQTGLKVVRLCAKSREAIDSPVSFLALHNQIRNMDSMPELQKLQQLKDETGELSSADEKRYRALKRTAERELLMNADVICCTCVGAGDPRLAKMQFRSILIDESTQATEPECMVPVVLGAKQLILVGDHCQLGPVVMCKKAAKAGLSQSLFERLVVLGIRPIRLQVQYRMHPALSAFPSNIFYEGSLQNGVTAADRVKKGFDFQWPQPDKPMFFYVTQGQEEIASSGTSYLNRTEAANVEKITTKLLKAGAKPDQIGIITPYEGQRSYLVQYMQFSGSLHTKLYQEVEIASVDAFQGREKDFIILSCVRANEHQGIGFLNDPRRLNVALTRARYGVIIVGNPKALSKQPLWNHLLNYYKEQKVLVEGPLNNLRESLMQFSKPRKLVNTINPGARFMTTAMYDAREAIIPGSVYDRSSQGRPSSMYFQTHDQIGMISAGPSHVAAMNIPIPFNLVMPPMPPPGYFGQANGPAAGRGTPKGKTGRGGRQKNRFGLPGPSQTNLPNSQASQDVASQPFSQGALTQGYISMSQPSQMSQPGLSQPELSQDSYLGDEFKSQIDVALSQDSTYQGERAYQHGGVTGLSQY

Amino acid sequences for entries named in this document (tags omitted).
UniProt P38919: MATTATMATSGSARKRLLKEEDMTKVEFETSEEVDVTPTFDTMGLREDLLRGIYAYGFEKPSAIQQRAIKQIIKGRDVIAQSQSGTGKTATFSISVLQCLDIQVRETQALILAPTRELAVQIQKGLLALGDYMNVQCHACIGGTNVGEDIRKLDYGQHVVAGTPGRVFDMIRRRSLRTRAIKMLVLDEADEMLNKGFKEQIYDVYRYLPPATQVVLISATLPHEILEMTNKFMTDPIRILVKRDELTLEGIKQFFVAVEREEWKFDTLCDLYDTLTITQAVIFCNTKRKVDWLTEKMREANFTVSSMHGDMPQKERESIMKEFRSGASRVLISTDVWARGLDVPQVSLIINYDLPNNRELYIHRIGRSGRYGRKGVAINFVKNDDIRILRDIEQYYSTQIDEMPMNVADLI

T2: FLAG-DHX34 (human) (UniProt Q14147)
T2 sequence: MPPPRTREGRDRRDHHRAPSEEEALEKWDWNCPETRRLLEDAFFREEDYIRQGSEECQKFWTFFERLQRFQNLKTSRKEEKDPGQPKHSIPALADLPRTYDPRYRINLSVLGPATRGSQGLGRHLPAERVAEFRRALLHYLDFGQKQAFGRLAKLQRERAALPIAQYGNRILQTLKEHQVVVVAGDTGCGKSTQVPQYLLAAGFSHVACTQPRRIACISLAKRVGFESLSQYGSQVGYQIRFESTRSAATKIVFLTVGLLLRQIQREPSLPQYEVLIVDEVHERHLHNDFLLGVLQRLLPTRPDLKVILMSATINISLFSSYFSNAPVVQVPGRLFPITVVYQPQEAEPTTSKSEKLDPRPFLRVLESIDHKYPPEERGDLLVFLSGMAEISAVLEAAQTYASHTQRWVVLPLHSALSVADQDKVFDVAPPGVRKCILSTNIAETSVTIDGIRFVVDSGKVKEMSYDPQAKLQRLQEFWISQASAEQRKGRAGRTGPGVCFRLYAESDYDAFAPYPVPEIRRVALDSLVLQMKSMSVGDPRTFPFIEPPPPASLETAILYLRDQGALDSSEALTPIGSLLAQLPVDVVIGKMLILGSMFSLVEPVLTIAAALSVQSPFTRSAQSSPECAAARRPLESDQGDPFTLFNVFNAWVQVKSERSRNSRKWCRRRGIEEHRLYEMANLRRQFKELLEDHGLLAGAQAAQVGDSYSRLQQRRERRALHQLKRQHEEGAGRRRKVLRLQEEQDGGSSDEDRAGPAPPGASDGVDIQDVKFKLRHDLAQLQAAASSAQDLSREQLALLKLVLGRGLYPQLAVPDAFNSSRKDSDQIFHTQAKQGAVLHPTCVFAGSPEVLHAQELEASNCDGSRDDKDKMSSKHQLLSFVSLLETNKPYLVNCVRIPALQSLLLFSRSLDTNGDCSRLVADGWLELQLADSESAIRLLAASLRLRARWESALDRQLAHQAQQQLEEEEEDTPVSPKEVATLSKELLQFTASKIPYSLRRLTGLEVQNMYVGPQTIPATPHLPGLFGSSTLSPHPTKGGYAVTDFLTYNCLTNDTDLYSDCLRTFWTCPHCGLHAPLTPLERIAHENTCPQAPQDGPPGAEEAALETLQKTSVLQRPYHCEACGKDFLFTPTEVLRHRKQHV

B1: SMG7 (protein, UniProt Q92540 1-1137)
chain: MSLQSAQYLRQAEVLKADMTDSKLGPAEVWTSRQALQDLYQKMLVTDLEYALDKKVEQDLWNHAFKNQITTLQGQAKNRANPNRSEVQANLSLFLEAASGFYTQLLQELCTVFNVDLPCRVKSSQLGIISNKQTHTSAIVKPQSSSCSYICQHCLVHLGDIARYRNQTSQAESYYRHAAQLVPSNGQPYNQLAILASSKGDHLTTIFYYCRSIAVKFPFPAASTNLQKALSKALESRDEVKTKWGVSDFIKAFIKFHGHVYLSKSLEKLSPLREKLEEQFKRLLFQKAFNSQQLVHVTVINLFQLHHLRDFSNETEQHTYSQDEQLCWTQLLALFMSFLGILCKCPLQNESQEESYNAYPLPAVKVSMDWLRLRPRVFQEAVVDERQYIWPWLISLLNSFHPHEEDLSSISATPLPEEFELQGFLALRPSFRNLDFSKGHQGITGDKEGQQRRIRQQRLISIGKWIADNQPRLIQCENEVGKLLFITEIPELILEDPSEAKENLILQETSVIESLAADGSPGLKSVLSTSRNLSNNCDTGEKPVVTFKENIKTREVNRDQGRSFPPKEVRRDYSKGITVTKNDGKKDNNKRKTETKKCTLEKLQETGKQNVAVQVKSQTELRKTPVSEARKTPVTQTPTQASNSQFIPIHHPGAFPPLPSRPGFPPPTYVIPPPVAFSMGSGYTFPAGVSVPGTFLQPTAHSPAGNQVQAGKQSHIPYSQQRPSGPGPMNQGPQQSQPPSQQPLTSLPAQPTAQSTSQLQVQALTQQQQSPTKAVPALGKSPPHHSGFQQYQQADASKQLWNPPQVQGPLGKIMPVKQPYYLQTQDPIKLFEPSLQPPVMQQQPLEKKMKPFPMEPYNHNPSEVKVPEFYWDSSYSMADNRSVMAQQANIDRRGKRSPGVFRPEQDPVPRMPFEKSLLEKPSELMSHSSSFLSLTGFSLNQERYPNNSMFNEVYGKNLTSSSKAELSPSMAPQETSLYSLFEGTPWSPSLPASSDHSTPASQSPHSSNPSSLPSSPPTHNHNSVPFSNFGPIGTPDNRDRRTADRWKTDKPAMGGFGIDYLSATSSSESSWHQASTPSGTWTGHGPSMEDSSAVLMESLKSIWSSSMMHPGPSALEQLLMQQKQKQQRGQGTMNPPH
B2: SMG9 (protein, UniProt Q9H0W8 1-520)
chain: MSESGHSQPGLYGIERRRRWKEPGSGGPQNLSGPGGRERDYIAPWERERRDASEETSTSVMQKTPIILSKPPAERSKQPPPPTAPAAPPAPAPLEKPIVLMKPREEGKGPVAVTGASTPEGTAPPPPAAPAPPKGEKEGQRPTQPVYQIQNRGMGTAAPAAMDPVVGQAKLLPPERMKHSIKLVDDQMNWCDSAIEYLLDQTDVLVVGVLGLQGTGKSMVMSLLSANTPEEDQRTYVFRAQSAEMKERGGNQTSGIDFFITQERIVFLDTQPILSPSILDHLINNDRKLPPEYNLPHTYVEMQSLQIAAFLFTVCHVVIVVQDWFTDLSLYRFLQTAEMVKPSTPSPSHESSSSSGSDEGTEYYPHLVFLQNKARREDFCPRKLRQMHLMIDQLMAHSHLRYKGTLSMLQCNVFPGLPPDFLDSEVNLFLVPFMDSEAESENPPRAGPGSSPLFSLLPGYRGHPSFQSLVSKLRSQVMSMARPQLSHTILTEKNWFHYAARIWDGVRKSSALAEYSRLLA
B3: 5' to 3' exonuclease XRN2 (protein, UniProt Q9H0D6 1-950)
chain: MGVPAFFRWLSRKYPSIIVNCVEEKPKECNGVKIPVDASKPNPNDVEFDNLYLDMNGIIHPCTHPEDKPAPKNEDEMMVAIFEYIDRLFSIVRPRRLLYMAIDGVAPRAKMNQQRSRRFRASKEGMEAAVEKQRVREEILAKGGFLPPEEIKERFDSNCITPGTEFMDNLAKCLRYYIADRLNNDPGWKNLTVILSDASAPGEGEHKIMDYIRRQRAQPNHDPNTHHCLCGADADLIMLGLATHEPNFTIIREEFKPNKPKPCGLCNQFGHEVKDCEGLPREKKGKHDELADSLPCAEGEFIFLRLNVLREYLERELTMASLPFTFDVERSIDDWVFMCFFVGNDFLPHLPSLEIRENAIDRLVNIYKNVVHKTGGYLTESGYVNLQRVQMIMLAVGEVEDSIFKKRKDDEDSFRRRQKEKRKRMKRDQPAFTPSGILTPHALGSRNSPGSQVASNPRQAAYEMRMQNNSSPSISPNTSFTSDGSPSPLGGIKRKAEDSDSEPEPEDNVRLWEAGWKQRYYKNKFDVDAADEKFRRKVVQSYVEGLCWVLRYYYQGCASWKWYYPFHYAPFASDFEGIADMPSDFEKGTKPFKPLEQLMGVFPAASGNFLPPSWRKLMSDPDSSIIDFYPEDFAIDLNGKKYAWQGVALLPFVDERRLRAALEEVYPDLTPEETRRNSLGGDVLFVGKHHPLHDFILELYQTGSTEPVEVPPELCHGIQGKFSLDEEAILPDQIVCSPVPMLRDLTQNTVVSINFKDPQFAEDYIFKAVMLPGARKPAAVLKPSDWEKSSNGRQWKPQLGFNRDRRPVHLDQAAFRTLGHVMPRGSGTGIYSNAAPPPVTYQGNLYRPLLRGQAQIPKLMSNMRPQDSWRGPPPLFQQQRFDRGVGAEPLLPWNRMLQTQNAAFQPNQYQMLAGPGGYPPRRDDRGGRQGYPREGRKYPLPPPSGRYNWN
B4: endogenous UPF3b (protein, UniProt Q9BZI7 1-483)
chain: MKEEKEHRPKEKRVTLLTPAGATGSGGGTSGDSSKGEDKQDRNKEKKEALSKVVIRRLPPTLTKEQLQEHLQPMPEHDYFEFFSNDTSLYPHMYARAYINFKNQEDIILFRDRFDGYVFLDNKGQEYPAIVEFAPFQKAAKKKTKKRDTKVGTIDDDPEYRKFLESYATDNEKMTSTPETLLEEIEAKNRELIAKKTTPLLSFLKNKQRMREEKREERRRREIERKRQREEERRKWKEEEKRKRKDIEKLKKIDRIPERDKLKDEPKIKVHRFLLQAVNQKNLLKKPEKGDEKELDKREKAKKLDKENLSDERASGQSCTLPKRSDSELKDEKPKRPEDESGRDYREREREYERDQERILRERERLKRQEEERRRQKERYEKEKTFKRKEEEMKKEKDTLRDKGKKAESTESIGSSEKTEKKEEVVKRDRIRNKDRPAMQLYQPGARSRNRLCPPDDSTKSGDSAAERKQESGISHRKEGGEE

Key:
[1] = molecular target: T1, FLAG-UPF1 (wild-type) (human); assay: co-IP; anti-FLAG IP of transiently transfected FLAG-UPF1 (wild-type or mutants) from HEK293T lysate; endogenous partners by western blot; in the absence or presence of RNase A (Figures 2B, S2B); cells also depleted of DHX34 by shRNA, rescued with T7-DHX34, or cotransfected with T7-DHX34
FLAG-DHX34 (human) = molecular target: T2, FLAG-DHX34 (human); assay: co-IP; anti-FLAG IP of transiently transfected FLAG-DHX34 from HEK293T lysate, in the absence or presence of RNase A; endogenous partners by western blot

Molecule | binding [1] | binding (FLAG-DHX34 (human))
EJC component eIF4A3 (from UniProt P38919 1-411) | binds | binds
B1 | binds | binds
B2 | binds | binds
B3 | binds | binds
B4 | binds | –

From paper PMC4534575, “The RNA Helicase DHX34 Activates NMD by Promoting a Transition from the Surveillance to the Decay-Inducing Complex” (Cell Reports, 2014)
